Source: the supplement of paper PMC8728848
This is one part of the list.

Assays:
Assay in all cases: glycan array binding signal (z-score within array); higher = stronger binding
Settings in all cases: glycan notation: IUPAC condensed, linker removed
[1] = target: Gal(b1-4)GlcNAc(b1-3)Gal(b1-4)GlcNAc(b1-2)[Gal(b1-4)GlcNAc(b1-3)Gal(b1-4)GlcNAc(b1-6)]Man(a1-6)[Gal(b1-4)GlcNAc(b1-3)Gal(b1-4)GlcNAc(b1-2)Man(a1-3)]Man(b1-4)GlcNAc(b1-4)GlcNAc
Summary of the method: (§1)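 Glycan array binding is given as a within-array Z-score, which can be read as non-binding when negative. The arrays, 3228 of them, came from the Consortium for Functional Glycomics database and were retained only where the protein sequence was available. Z-scores were averaged across arrays of the same protein sequence at different concentrations or buffers and across linkers.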

[2] = target: Gal(b1-4)GlcNAc(b1-3)Gal(b1-4)GlcNAc(b1-2)[Gal(b1-4)GlcNAc(b1-3)Gal(b1-4)GlcNAc(b1-6)]Man(a1-6)[Gal(b1-4)GlcNAc(b1-3)Gal(b1-4)GlcNAc(b1-2)Man(a1-3)]Man(b1-4)GlcNAc(b1-4)[Fuc(a1-6)]GlcNAc
Summary of the method: as §1

[3] = target: Gal(b1-4)GlcNAc(b1-3)Gal(b1-4)GlcNAc(b1-3)Gal(b1-4)GlcNAc
Summary of the method: as §1

[4] = target: Gal(b1-4)GlcNAc(b1-3)Gal(b1-4)GlcNAc(b1-3)Gal(b1-4)GlcNAc(b1-2)Man(a1-3)[Gal(b1-4)GlcNAc(b1-3)Gal(b1-4)GlcNAc(b1-3)Gal(b1-4)GlcNAc(b1-2)Man(a1-6)]Man(b1-4)GlcNAc(b1-4)GlcNAc
Summary of the method: as §1

[5] = target: Gal(b1-4)GlcNAc(b1-3)Gal(b1-4)GlcNAc(b1-3)Gal(b1-4)GlcNAc(b1-2)Man(a1-3)[Gal(b1-4)GlcNAc(b1-3)Gal(b1-4)GlcNAc(b1-3)Gal(b1-4)GlcNAc(b1-2)Man(a1-6)]Man(b1-4)GlcNAc(b1-4)[Fuc(a1-6)]GlcNAc
Summary of the method: as §1

[6] = target: Gal(b1-4)GlcNAc(b1-3)Gal(b1-4)GlcNAc(b1-3)Gal(b1-4)GlcNAc(b1-2)[Gal(b1-4)GlcNAc(b1-3)Gal(b1-4)GlcNAc(b1-3)Gal(b1-4)GlcNAc(b1-6)]Man(a1-6)[Gal(b1-4)GlcNAc(b1-3)Gal(b1-4)GlcNAc(b1-3)Gal(b1-4)GlcNAc(b1-2)Man(a1-3)]Man(b1-4)GlcNAc(b1-4)[Fuc(a1-6)]GlcNAc
Summary of the method: as §1

[7] = target: Gal(b1-4)GlcNAc(b1-3)Gal(b1-4)GlcNAc(b1-3)Gal(b1-4)GlcNAc(b1-3)Gal(b1-4)GlcNAc(b1-2)Man(a1-3)[Gal(b1-4)GlcNAc(b1-3)Gal(b1-4)GlcNAc(b1-3)Gal(b1-4)GlcNAc(b1-3)Gal(b1-4)GlcNAc(b1-2)Man(a1-6)]Man(b1-4)GlcNAc(b1-4)GlcNAc
Summary of the method: as §1

[8] = target: Gal(b1-4)GlcNAc(b1-3)Gal(b1-4)GlcNAc(b1-3)Gal(b1-4)GlcNAc(b1-3)Gal(b1-4)GlcNAc(b1-2)Man(a1-3)[Gal(b1-4)GlcNAc(b1-3)Gal(b1-4)GlcNAc(b1-3)Gal(b1-4)GlcNAc(b1-3)Gal(b1-4)GlcNAc(b1-2)Man(a1-6)]Man(b1-4)GlcNAc(b1-4)[Fuc(a1-6)]GlcNAc
Summary of the method: as §1

[9] = target: Gal(b1-4)GlcNAc(b1-3)Gal(b1-4)GlcNAc(b1-3)Gal(b1-4)GlcNAc(b1-3)Gal(b1-4)GlcNAc(b1-2)[Gal(b1-4)GlcNAc(b1-3)Gal(b1-4)GlcNAc(b1-3)Gal(b1-4)GlcNAc(b1-3)Gal(b1-4)GlcNAc(b1-6)]Man(a1-6)[Gal(b1-4)GlcNAc(b1-3)Gal(b1-4)GlcNAc(b1-3)Gal(b1-4)GlcNAc(b1-3)Gal(b1-4)GlcNAc(b1-2)Man(a1-3)]Man(b1-4)GlcNAc(b1-4)[Fuc(a1-6)]GlcNAc
Summary of the method: as §1

[10] = target: Gal(b1-4)GlcNAc(b1-3)Gal(b1-4)GlcNAc(b1-3)Gal(b1-4)GlcNAc(b1-3)Gal(b1-4)GlcNAc(b1-3)Gal(b1-4)GlcNAc(b1-2)Man(a1-3)[Gal(b1-4)GlcNAc(b1-3)Gal(b1-4)GlcNAc(b1-3)Gal(b1-4)GlcNAc(b1-3)Gal(b1-4)GlcNAc(b1-3)Gal(b1-4)GlcNAc(b1-2)Man(a1-6)]Man(b1-4)GlcNAc(b1-4)GlcNAc
Summary of the method: as §1

[11] = target: Gal(b1-4)GlcNAc(b1-3)Gal(b1-4)GlcNAc(b1-3)Gal(b1-4)GlcNAc(b1-3)Gal(b1-4)GlcNAc(b1-3)Gal(b1-4)GlcNAc(b1-2)Man(a1-3)[Gal(b1-4)GlcNAc(b1-3)Gal(b1-4)GlcNAc(b1-3)Gal(b1-4)GlcNAc(b1-3)Gal(b1-4)GlcNAc(b1-3)Gal(b1-4)GlcNAc(b1-2)Man(a1-6)]Man(b1-4)GlcNAc(b1-4)[Fuc(a1-6)]GlcNAc
Summary of the method: as §1

[12] = target: Gal(b1-4)GlcNAc(b1-3)Gal(b1-4)GlcNAc(b1-3)Gal(b1-4)GlcNAc(b1-3)Gal(b1-4)GlcNAc(b1-3)Gal(b1-4)GlcNAc(b1-2)[Gal(b1-4)GlcNAc(b1-3)Gal(b1-4)GlcNAc(b1-3)Gal(b1-4)GlcNAc(b1-3)Gal(b1-4)GlcNAc(b1-3)Gal(b1-4)GlcNAc(b1-6)]Man(a1-6)[Gal(b1-4)GlcNAc(b1-3)Gal(b1-4)GlcNAc(b1-3)Gal(b1-4)GlcNAc(b1-3)Gal(b1-4)GlcNAc(b1-3)Gal(b1-4)GlcNAc(b1-2)Man(a1-3)]Man(b1-4)GlcNAc(b1-4)[Fuc(a1-6)]GlcNAc
Summary of the method: as §1

[13] = target: Gal(b1-4)GlcNAc(b1-3)Gal(b1-4)GlcNAc(b1-3)Gal(b1-4)GlcNAc(b1-3)Gal(b1-4)GlcNAc(b1-3)Gal(b1-4)GlcNAc(b1-3)Gal(b1-4)GlcNAc(b1-2)Man(a1-3)[Gal(b1-4)GlcNAc(b1-3)Gal(b1-4)GlcNAc(b1-3)Gal(b1-4)GlcNAc(b1-3)Gal(b1-4)GlcNAc(b1-3)Gal(b1-4)GlcNAc(b1-3)Gal(b1-4)GlcNAc(b1-2)Man(a1-6)]Man(b1-4)GlcNAc(b1-4)GlcNAc
Summary of the method: as §1

[14] = target: Gal(b1-4)GlcNAc(b1-3)Gal(b1-4)GlcNAc(b1-3)GalNAc
Summary of the method: as §1

[15] = target: Gal(b1-4)GlcNAc(b1-3)Gal(b1-4)GlcNAc(b1-3)[Gal(b1-4)GlcNAc(b1-3)Gal(b1-4)GlcNAc(b1-6)]GalNAc
Summary of the method: as §1

[16] = target: Gal(b1-4)GlcNAc(b1-3)Gal(b1-4)GlcNAc(b1-6)[Gal(b1-3)]GalNAc
Summary of the method: as §1

[17] = target: Gal(b1-4)GlcNAc(b1-3)Gal(b1-4)[Fuc(a1-3)]GlcNAc(b1-3)Gal(b1-4)[Fuc(a1-3)]GlcNAc
Summary of the method: as §1

[18] = target: Gal(b1-4)GlcNAc(b1-3)GalNAc
Summary of the method: as §1

[19] = target: Gal(b1-4)GlcNAc(b1-3)[Fuc(a1-3)GlcNAc(b1-6)]Gal(b1-4)Glc
Summary of the method: as §1

[20] = target: Gal(b1-4)GlcNAc(b1-3)[Gal(b1-4)GlcNAc(b1-6)]Gal(b1-4)GlcNAc
Summary of the method: as §1

[21] = target: Gal(b1-4)GlcNAc(b1-3)[GlcNAc(b1-6)]Gal(b1-4)GlcNAc
Summary of the method: as §1

[22] = target: Gal(b1-4)GlcNAc(b1-6)Gal(b1-4)GlcNAc
Summary of the method: as §1

[23] = target: Gal(b1-4)GlcNAc(b1-6)GalNAc
Summary of the method: as §1

[24] = target: Gal(b1-4)GlcNAc(b1-6)[Gal(b1-3)]GalNAc
Summary of the method: as §1

[25] = target: Gal(b1-4)GlcNAc(b1-6)[Gal(b1-4)GlcNAc(b1-3)]GalNAc
Summary of the method: as §1

Gal(b1-4)GlcNAc6P = target: Gal(b1-4)GlcNAc6P
Summary of the method: as §1

Gal(b1-6)Gal = target: Gal(b1-6)Gal
Summary of the method: as §1

Gal3S(b1-3)GalNAc = target: Gal3S(b1-3)GalNAc
Summary of the method: as §1

Gal3S(b1-3)GlcNAc = target: Gal3S(b1-3)GlcNAc
Summary of the method: as §1

[26] = target: Gal3S(b1-3)[Fuc(a1-4)]GlcNAc
Summary of the method: as §1

Gal3S(b1-4)Glc = target: Gal3S(b1-4)Glc
Summary of the method: as §1

Gal3S(b1-4)Glc6S = target: Gal3S(b1-4)Glc6S
Summary of the method: as §1

Gal3S(b1-4)GlcNAc = target: Gal3S(b1-4)GlcNAc
Summary of the method: as §1

[27] = target: Gal3S(b1-4)[Fuc(a1-3)]Glc6S
Summary of the method: as §1

[28] = target: Gal3S(b1-4)[Fuc(a1-3)]GlcNAc
Summary of the method: as §1

[29] = target: Gal3S(b1-4)[Fuc(a1-3)]GlcNAc6S
Summary of the method: as §1

Gal3S4S(b1-4)GlcNAc = target: Gal3S4S(b1-4)GlcNAc
Summary of the method: as §1

B1: SP15308A-bot-339-19-339 (Bacteroides ovatus) (protein)
chain: ACNNEWEDEQYEQYISFKSPIPAGGEGVTDIYVRYKEDGKVTYRLPIVVSGSTTNTLDREVHIAVDKDTLETLNIERFSIHRPGLWYTALEEDKYDFPKTVHISAGSSVEQLNIDFNLQGIDMLEKWVLPLTIVDDPSYNYKSHPRKNYAKALLRVIPFNNYSGSYTSSAMKVYTYINGKPDTNARTANKRTGYVINDNTVFFYAGLISEDLDKEVREKYKINVHFNEDGTLHMEQGDPTNKMKFELIGTPTYSKTSVMDATRPYLERRYVQIMFEYDFEDFSYGGNGVDVIPIKYKVEGSMTLQRNINTQIPDEDQQIEW
- glycan array binding signal (z-score) [1]: 0.676
- glycan array binding signal (z-score) [2]: 0.103
- glycan array binding signal (z-score) [3]: 0.071
- glycan array binding signal (z-score) [4]: 0.702
- glycan array binding signal (z-score) [5]: 2.77
- glycan array binding signal (z-score) [6]: -0.333
- glycan array binding signal (z-score) [7]: 0.2
- glycan array binding signal (z-score) [8]: -0.114
- glycan array binding signal (z-score) [9]: 0.091
- glycan array binding signal (z-score) [10]: -0.342
- glycan array binding signal (z-score) [11]: 0.44
- glycan array binding signal (z-score) [12]: 0.968
- glycan array binding signal (z-score) [13]: 0.152
- glycan array binding signal (z-score) [14]: -0.439
- glycan array binding signal (z-score) [15]: 0.116
- glycan array binding signal (z-score) [16]: -0.29
- glycan array binding signal (z-score) [17]: -0.128
- glycan array binding signal (z-score) [18]: 0.135
- glycan array binding signal (z-score) [19]: -0.732
- glycan array binding signal (z-score) [20]: 0.369
- glycan array binding signal (z-score) [21]: -0.377
- glycan array binding signal (z-score) [22]: -0.427
- glycan array binding signal (z-score) [23]: 0.329
- glycan array binding signal (z-score) [24]: 0.088
- glycan array binding signal (z-score) [25]: -0.234
- glycan array binding signal (z-score) (Gal(b1-4)GlcNAc6P): 0.203
- glycan array binding signal (z-score) (Gal(b1-6)Gal): 0.157
- glycan array binding signal (z-score) (Gal3S(b1-3)GalNAc): 0.97
- glycan array binding signal (z-score) (Gal3S(b1-3)GlcNAc): -0.098
- glycan array binding signal (z-score) [26]: 0.015
- glycan array binding signal (z-score) (Gal3S(b1-4)Glc): 0.257
- glycan array binding signal (z-score) (Gal3S(b1-4)Glc6S): -0.049
- glycan array binding signal (z-score) (Gal3S(b1-4)GlcNAc): -0.26
- glycan array binding signal (z-score) [27]: 0.627
- glycan array binding signal (z-score) [28]: -0.285
- glycan array binding signal (z-score) [29]: 0.244
- glycan array binding signal (z-score) (Gal3S4S(b1-4)GlcNAc): 0.201
